The source gives many values for each of these; only a part stands here.
Assay: Regression model estimating vortioxetine half-life and MAOI delay from total body fat and steady-state plasma concentration (CYP2D6 metabolizer status)
Design: species or system human
Source text: Data obtained in the study described in Example 1 and Table 1 provided the basis for a regression model (having a r^2 value of 88%) based on total body fat and steady-state vortioxetine plasma concentration. Because the steady-state plasma concentration of vortioxetine correlates with metabolizer status, this regression provides a means of estimating vortioxetine half-life for patients based on total body fat and CYP2D6 metabolizer status.
Alternatively, the delay period can be calculated based on any particular values in Table 1, or any statistical parameter for characterizing the subject population of Table, such as the arithmetic mean, geometric mean, maximum, minimum, maximum or minimum 90% confidence interval, etc. of the half-life (e.g., 7.5×the average t1/2, 7.5×the maximum t1/2, and so forth, or the 21 day equivalency to a normal weight extensive metabolizer subject, based on the average t1/2 or the maximum t1/2 or any of the aforementioned statistically parameters).

[1] = Extensive(a) average of obese steady-state concentration for extensive metabolizers, total fat 60 kg
[2] = Extensive(a) average of obese steady-state concentration for extensive metabolizers, total fat 70 kg
[3] = Extensive(a) average of obese steady-state concentration for extensive metabolizers, total fat 80 kg
[4] = Extensive(a) average of obese steady-state concentration for extensive metabolizers, total fat 90 kg
[5] = Extensive(a) average of obese steady-state concentration for extensive metabolizers, total fat 100 kg
[6] = Extensive(b) high of extensive metabolizers, total fat 40 kg
[7] = Extensive(b) high of extensive metabolizers, total fat 50 kg
[8] = Extensive(b) high of extensive metabolizers, total fat 60 kg
[9] = Extensive(b) high of extensive metabolizers, total fat 70 kg
[10] = Extensive(b) high of extensive metabolizers, total fat 80 kg
[11] = Extensive(b) high of extensive metabolizers, total fat 90 kg
[12] = Extensive(b) high of extensive metabolizers, total fat 100 kg
[13] = IM(c) average of intermediate metabolizer values, total fat 10 kg
[14] = IM(c) average of intermediate metabolizer values, total fat 20 kg
[15] = IM(c) average of intermediate metabolizer values, total fat 30 kg
[16] = IM(c) average of intermediate metabolizer values, total fat 40 kg
[17] = IM(c) average of intermediate metabolizer values, total fat 50 kg
[18] = IM(c) average of intermediate metabolizer values, total fat 60 kg
[19] = IM(c) average of intermediate metabolizer values, total fat 70 kg
[20] = IM(c) average of intermediate metabolizer values, total fat 80 kg
[21] = IM(c) average of intermediate metabolizer values, total fat 90 kg
[22] = IM(c) average of intermediate metabolizer values, total fat 100 kg
[23] = IM(d) high of IM values, total fat 70 kg
[24] = IM(d) high of IM values, total fat 80 kg
[25] = PM(e) estimated poor metabolizer values, total fat 10 kg
[26] = PM(e) estimated poor metabolizer values, total fat 20 kg
[27] = PM(e) estimated poor metabolizer values, total fat 30 kg
[28] = PM(e) estimated poor metabolizer values, total fat 40 kg
[29] = PM(e) estimated poor metabolizer values, total fat 50 kg
[30] = PM(e) estimated poor metabolizer values, total fat 60 kg
[31] = PM(e) estimated poor metabolizer values, total fat 70 kg
[32] = PM(e) estimated poor metabolizer values, total fat 80 kg
[33] = PM(e) estimated poor metabolizer values, total fat 90 kg
[34] = PM(e) estimated poor metabolizer values, total fat 100 kg

SMILES: Cc1ccc(Sc2ccccc2N2CCNCC2)c(C)c1 [vortioxetine]
- Weeks of Delay (21 day equivalency to Normal, 54 hr half-life) (Extensive(a) average of obese steady-state concentration for extensive metabolizers, total fat 50 kg): 3.5 Weeks
- Weeks of Delay (21 day equivalency to Normal, 54 hr half-life) [1]: 4.1 Weeks
- Weeks of Delay (21 day equivalency to Normal, 66 hr half-life) [1]: 3.3 Weeks
- Weeks of Delay (21 day equivalency to Normal, 54 hr half-life) [2]: 4.6 Weeks
- Weeks of Delay (21 day equivalency to Normal, 66 hr half-life) [2]: 3.8 Weeks
- Weeks of Delay (21 day equivalency to Normal, 54 hr half-life) [3]: 5.2 Weeks
- Weeks of Delay (21 day equivalency to Normal, 66 hr half-life) [3]: 4.2 Weeks
- Weeks of Delay (21 day equivalency to Normal, 54 hr half-life) [4]: 5.8 Weeks
- Weeks of Delay (21 day equivalency to Normal, 66 hr half-life) [4]: 4.7 Weeks
- Weeks of Delay (21 day equivalency to Normal, 54 hr half-life) [5]: 6.4 Weeks
- Weeks of Delay (21 day equivalency to Normal, 66 hr half-life) [5]: 5.2 Weeks
- Weeks of Delay (21 day equivalency to Normal, 54 hr half-life) (Extensive(b) high of extensive metabolizers, total fat 30 kg): 3.3 Weeks
- Weeks of Delay (21 day equivalency to Normal, 54 hr half-life) [6]: 3.9 Weeks
- Weeks of Delay (21 day equivalency to Normal, 66 hr half-life) [6]: 3.2 Weeks
- Weeks of Delay (21 day equivalency to Normal, 54 hr half-life) [7]: 4.5 Weeks
- Weeks of Delay (21 day equivalency to Normal, 66 hr half-life) [7]: 3.6 Weeks
- Weeks of Delay (21 day equivalency to Normal, 54 hr half-life) [8]: 5.0 Weeks
- Weeks of Delay (21 day equivalency to Normal, 66 hr half-life) [8]: 4.1 Weeks
- Weeks of Delay (21 day equivalency to Normal, 54 hr half-life) [9]: 5.6 Weeks
- Weeks of Delay (21 day equivalency to Normal, 66 hr half-life) [9]: 4.6 Weeks
- Weeks of Delay (21 day equivalency to Normal, 54 hr half-life) [10]: 6.2 Weeks
- Weeks of Delay (21 day equivalency to Normal, 66 hr half-life) [10]: 5.0 Weeks
- Weeks of Delay (21 day equivalency to Normal, 54 hr half-life) [11]: 6.7 Weeks
- Weeks of Delay (21 day equivalency to Normal, 66 hr half-life) [11]: 5.5 Weeks
- Weeks of Delay (21 day equivalency to Normal, 54 hr half-life) [12]: 7.3 Weeks
- Weeks of Delay (21 day equivalency to Normal, 66 hr half-life) [12]: 6.0 Weeks
- Weeks of Delay (21 day equivalency to Normal, 54 hr half-life) [13]: 5.7 Weeks
- Weeks of Delay (21 day equivalency to Normal, 66 hr half-life) [13]: 4.6 Weeks
- Weeks of Delay (21 day equivalency to Normal, 54 hr half-life) [14]: 6.3 Weeks
- Weeks of Delay (21 day equivalency to Normal, 66 hr half-life) [14]: 5.1 Weeks
- Weeks of Delay (21 day equivalency to Normal, 54 hr half-life) [15]: 6.8 Weeks
- Weeks of Delay (21 day equivalency to Normal, 66 hr half-life) [15]: 5.6 Weeks
- Weeks of Delay (21 day equivalency to Normal, 54 hr half-life) [16]: 7.4 Weeks
- Weeks of Delay (21 day equivalency to Normal, 66 hr half-life) [16]: 6.0 Weeks
- Weeks of Delay (21 day equivalency to Normal, 54 hr half-life) [17]: 8.0 Weeks
- Weeks of Delay (21 day equivalency to Normal, 66 hr half-life) [17]: 6.5 Weeks
- Weeks of Delay (21 day equivalency to Normal, 54 hr half-life) [18]: 8.6 Weeks
- Weeks of Delay (21 day equivalency to Normal, 66 hr half-life) [18]: 7.0 Weeks
- Weeks of Delay (21 day equivalency to Normal, 54 hr half-life) [19]: 9.1 Weeks
- Weeks of Delay (21 day equivalency to Normal, 66 hr half-life) [19]: 7.4 Weeks
- Weeks of Delay (21 day equivalency to Normal, 54 hr half-life) [20]: 9.7 Weeks
- Weeks of Delay (21 day equivalency to Normal, 66 hr half-life) [20]: 7.9 Weeks
- Weeks of Delay (21 day equivalency to Normal, 54 hr half-life) [21]: 10.3 Weeks
- Weeks of Delay (21 day equivalency to Normal, 66 hr half-life) [21]: 8.4 Weeks
- Weeks of Delay (21 day equivalency to Normal, 54 hr half-life) [22]: 10.8 Weeks
- Weeks of Delay (21 day equivalency to Normal, 66 hr half-life) [22]: 8.8 Weeks
- Weeks of Delay (21 day equivalency to Normal, 54 hr half-life) (IM(d) high of IM values, total fat 10 kg): 6.5 Weeks
- Weeks of Delay (21 day equivalency to Normal, 54 hr half-life) (IM(d) high of IM values, total fat 20 kg): 7.0 Weeks
- Weeks of Delay (21 day equivalency to Normal, 54 hr half-life) (IM(d) high of IM values, total fat 30 kg): 7.6 Weeks
- Weeks of Delay (21 day equivalency to Normal, 54 hr half-life) (IM(d) high of IM values, total fat 40 kg): 8.2 Weeks
- Weeks of Delay (21 day equivalency to Normal, 54 hr half-life) (IM(d) high of IM values, total fat 50 kg): 8.8 Weeks
- Weeks of Delay (21 day equivalency to Normal, 54 hr half-life) (IM(d) high of IM values, total fat 60 kg): 9.3 Weeks
- Weeks of Delay (21 day equivalency to Normal, 54 hr half-life) [23]: 9.9 Weeks
- Weeks of Delay (21 day equivalency to Normal, 66 hr half-life) [23]: 8.1 Weeks
- Weeks of Delay (21 day equivalency to Normal, 54 hr half-life) [24]: 10.5 Weeks
- Weeks of Delay (21 day equivalency to Normal, 66 hr half-life) [24]: 8.5 Weeks
- Weeks of Delay (21 day equivalency to Normal, 54 hr half-life) (IM(d) high of IM values, total fat 90 kg): 11.0 Weeks
- Weeks of Delay (21 day equivalency to Normal, 54 hr half-life) (IM(d) high of IM values, total fat 100 kg): 11.6 Weeks
- Weeks of Delay (21 day equivalency to Normal, 54 hr half-life) [25]: 12.0 Weeks
- Weeks of Delay (21 day equivalency to Normal, 66 hr half-life) [25]: 9.8 Weeks
- Weeks of Delay (21 day equivalency to Normal, 54 hr half-life) [26]: 12.6 Weeks
- Weeks of Delay (21 day equivalency to Normal, 66 hr half-life) [26]: 10.2 Weeks
- Weeks of Delay (21 day equivalency to Normal, 54 hr half-life) [27]: 13.1 Weeks
- Weeks of Delay (21 day equivalency to Normal, 66 hr half-life) [27]: 10.7 Weeks
- Weeks of Delay (21 day equivalency to Normal, 54 hr half-life) [28]: 13.7 Weeks
- Weeks of Delay (21 day equivalency to Normal, 66 hr half-life) [28]: 11.2 Weeks
- Weeks of Delay (21 day equivalency to Normal, 54 hr half-life) [29]: 14.3 Weeks
- Weeks of Delay (21 day equivalency to Normal, 66 hr half-life) [29]: 11.6 Weeks
- Weeks of Delay (21 day equivalency to Normal, 54 hr half-life) [30]: 14.8 Weeks
- Weeks of Delay (21 day equivalency to Normal, 66 hr half-life) [30]: 12.1 Weeks
- Weeks of Delay (21 day equivalency to Normal, 54 hr half-life) [31]: 15.4 Weeks
- Weeks of Delay (21 day equivalency to Normal, 66 hr half-life) [31]: 12.5 Weeks
- Weeks of Delay (21 day equivalency to Normal, 54 hr half-life) [32]: 16.0 Weeks
- Weeks of Delay (21 day equivalency to Normal, 66 hr half-life) [32]: 13.0 Weeks
- Weeks of Delay (21 day equivalency to Normal, 54 hr half-life) [33]: 16.6 Weeks
- Weeks of Delay (21 day equivalency to Normal, 66 hr half-life) [33]: 13.5 Weeks
- Weeks of Delay (21 day equivalency to Normal, 54 hr half-life) [34]: 17.1 Weeks
- Weeks of Delay (21 day equivalency to Normal, 66 hr half-life) [34]: 13.9 Weeks

— patent US12508261B2, “Methods of treating depression with vortioxetine” (Rundle Research LLC, priority 2017, dated 2025)
